The text below walks through data of the supplement of paper PMC12889115.

Each structure is given as a SMILES string. The list shows a part of the results. Most values come without repeats; read them as rough.
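Further: polymyxin B level opens the outer membrane while sparing the inner membrane, with novobiocin wells as reference growth inhibitor.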

The assay deals with Salmonella enterica serovar Typhimurium SL1344. Briefly: bacterial growth OD600 after 18 h in MHB with 0.5 µg/mL polymyxin B; higher = more bacterial growth (less inhibition). The settings on record: 25 µM; polymyxin B 0.5 µg/mL; system: broth. On the procedure:
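Secondary screen of the 553 primary hits at 25 µM. (i) S. Typhimurium SL1344 grown in Mueller-Hinton broth with 0.5 µg/mL polymyxin B, OD600 read after 18 h. (ii) SAFIRE assay: RAW 264.7 macrophages infected with S. Typhimurium sifB::gfp (MOI 30); compound added 2 h post-infection; cells fixed at 18 h; GFP-positive pixel fraction per macrophage imaged by confocal microscopy and expressed as % of DMSO control.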
Consider `CC(c1ccon1)N(C)C(=O)CC1(c2ccccc2)CC(=O)N(Cc2ccc3c(c2)OCO3)C1=O` (stereo not given), for which the “bacterial growth OD600” value worked out at 0.446.

Take `CCOC(=O)C1(Cc2ccc(Cl)cc2)CCN(C(=O)c2ccc3nccnc3c2)CC1`: the “bacterial growth OD600” value was 0.003. For `CCN1C(=O)CC(CC(=O)N(CC2CCC2)CC2CCCO2)(c2cccc(C(F)(F)F)c2)C1=O` (stereo not given), the “bacterial growth OD600” value worked out at 0.004. For the compound `Cc1csc(SCC(=O)N2CCC3(CC2)CC3C(=O)NCCc2nc3ccccc3n2C)n1` (stereo not given), the “bacterial growth OD600” value turned out to be 0.389. For `c1csc(CNc2nc(CN3CCc4ccccc4C3)nc3ccccc23)c1`, the “bacterial growth OD600” value worked out at 0.001.
